The values below come from patent US20230235080A1, “TROPHOBLAST CELL-SURFACE ANTIGEN-2 (TROP-2) ANTIBODIES” (Bionecure Therapeutics, Inc., priority 2020, published 2023).

The target in test [1] is T1, human Trop-2-ECD-6His fusion protein (Homo sapiens, UniProt P09758).
T1 construct: made in house; host or cells: human 293 cell line
T1 sequence (P09758 with tags, fused parts or gaps): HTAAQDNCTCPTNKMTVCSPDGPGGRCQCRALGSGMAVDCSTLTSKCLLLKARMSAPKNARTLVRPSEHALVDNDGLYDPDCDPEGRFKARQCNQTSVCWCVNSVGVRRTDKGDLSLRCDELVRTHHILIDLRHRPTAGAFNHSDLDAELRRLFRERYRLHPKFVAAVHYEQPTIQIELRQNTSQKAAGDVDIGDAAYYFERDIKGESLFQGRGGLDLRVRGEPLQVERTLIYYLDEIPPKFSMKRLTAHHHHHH
The test can be described thus: Antigen binding assay (ELISA) on immobilized Trop-2-ECD-6His. The protocol: Using the HCVR sequence and LCVR sequence of mAbs #118-2-5 and #125-1-5, two murine-human chimeric IgG1 (hereinafter “chimeric IgG1”) was prepared which comprised the heavy chain sequences set forth in SEQ ID NOs: 47 and 49, and the light chain sequences set forth in SEQ ID NOs: 48 and 50. Nucleic acids encoded by SEQ ID NO: 19, 20 and SEQ ID NO: 21, 22 were amplified and inserted into pTT5 to make an expression plasmid of the full-length IgG. The heavy chain and light chain expression plasmids were used to co-transfect 100 mL HEK293-6E cells. The recombinant IgG secreted into to media was purified using protein A affinity. The purified IgG migrated as ~150 kDa band in SDS-PAGE under non-reducing conditions, ~55 kDa and ~30 kDA bands under reducing condition. The purity of the chimeric IgG is >90%. The binding affinity between the chimeric IgGs and a human Trop-2-ECD-6His fusion protein (SEQ ID NO:2) was determined by ELISA. The Trop-2-ECD-6His fusion protein was immobilized on the surface of a microplate wells and incubated with the chimeric IgGs. A secondary enzyme-labeled goat-anti-mouse IgG-AP was then added. After washing, the activity of the microplate well-bound enzyme was measured by adding the substrate. Color development and absorbance at 405 nm were read.
(ELISA stands for enzyme-linked immunosorbent assay.)

In a further test the test system is non-related protein. The test can be described thus: Cross-reactivity ELISA, non-related protein. The test is classed as binding. The settings on record: plate coated with 1 µg/mL protein. As for the experimental part:
(§1) Cross-reactivity of chimeric IgG #118-2-5 and #125-1-5 to the Trop-2 antigens from different species was assessed by ELISA. In this experiment, a microtiter plate was coated overnight at 4° C. with 50 µL/well of 1 µg/mL human Trop-2ECD-6His, mouse Trop-2-His, cynomolgus Trop-2-His, human EPCAM-His, and a non-related protein. The plate was washed and blocked for 1 hr at 37° C., and then washed with wash buffer. Purified chimeric IgGs appropriately diluted in PBS were added to wells and incubated for 1 hr at 37° C. After washing, bound antibodies were detected using HRP-conjugated goat-anti-human IgG Ab. Color development and absorbance at OD450 nm were read. A non-specific mock mouse IgG and a non-specific mock human IgG were included as the negative controls, while anti-His antibody was used as a positive control.
(§2) The cross-reactivity of purified IgGs to the Trop-2 antigens from different species was tested by ELISA. In this experiment, a microtiter plate was coated overnight at 4° C. with 50 µL/well of 1 µg/mL human Trop-2ECD-6His, mouse Trop-2-His, cynomolgus Trop-2-His, human EPCAM-His, and a non-related protein. The plate was washed and blocked for 1 hr at 37° C., and then washed with wash buffer. […] After washing, bound antibodies were detected using HRP-conjugated goat-anti-human IgG antibody. Color development and absorbance at OD450 nm were read. […]

For another test, the target named is T2, human Trop-2ECD-6His (Homo sapiens, UniProt P09758).
T2 construct: made in house; host or cells: human 293 cell line
T2 sequence (P09758 with tags, fused parts or gaps): T1 sequence (P09758 with tags, fused parts or gaps)
The test can be described thus: Cross-reactivity ELISA, human Trop-2. The settings on record: plate coated with 1 µg/mL antigen. It is filed as binding. As for the experimental part: as §1, §2

Another test addresses T3, human EPCAM-His (Homo sapiens, UniProt P16422).
T3 sequence (P16422 24-314): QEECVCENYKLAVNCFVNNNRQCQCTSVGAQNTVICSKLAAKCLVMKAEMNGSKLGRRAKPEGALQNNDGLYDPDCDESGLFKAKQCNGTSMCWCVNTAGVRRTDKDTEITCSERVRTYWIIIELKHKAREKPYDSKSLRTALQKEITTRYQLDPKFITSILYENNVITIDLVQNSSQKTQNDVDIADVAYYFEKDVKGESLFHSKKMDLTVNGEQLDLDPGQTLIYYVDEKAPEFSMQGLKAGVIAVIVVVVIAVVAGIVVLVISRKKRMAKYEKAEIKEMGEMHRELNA
Nature of the test: Cross-reactivity ELISA, human EPCAM. It is filed as binding. The conditions noted are these: plate coated with 1 µg/mL antigen. The protocol:
as §1, §2

A further test concerns the target T4, mouse Trop-2-His (Mus musculus, UniProt Q8BGV3).
T4 sequence (Q8BGV3 25-317): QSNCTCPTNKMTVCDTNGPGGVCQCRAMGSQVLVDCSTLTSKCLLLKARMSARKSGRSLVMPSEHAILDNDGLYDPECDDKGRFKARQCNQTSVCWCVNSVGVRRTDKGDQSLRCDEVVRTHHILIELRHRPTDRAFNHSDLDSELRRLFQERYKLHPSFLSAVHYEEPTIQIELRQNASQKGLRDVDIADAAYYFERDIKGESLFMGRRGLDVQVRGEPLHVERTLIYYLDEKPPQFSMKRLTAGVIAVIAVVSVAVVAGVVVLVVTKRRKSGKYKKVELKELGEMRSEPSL
Nature of the test: Cross-reactivity ELISA, mouse Trop-2. It is filed as binding. The settings on record: plate coated with 1 µg/mL antigen. The protocol: as §1, §2

Another test deals with cynomolgus Trop-2-His. The test can be described thus: Cross-reactivity ELISA, cynomolgus Trop-2. The conditions noted are these: plate coated with 1 µg/mL antigen. It is filed as binding. The protocol: as §1, §2
Test [2] concerns Trop-2 positive breast cancer cell line MDA-MB-468. The test can be described thus: Internalization assay by flow cytometry (Example 2 protocol). It is filed as cell-based, human. As for the experimental part: The chimeric IgG1 #118-2-5 and #125-1-5 were further evaluated by internalization assay using Trop-2 positive breast cancer cell line MDA-MB-468. MDA-MB-468 cells were seeded at 1×10^5 cell/well. Next, the chimeric or benchmark IgGs were added to cells in FACS buffer and incubated for 2 hours at 4° C. After incubation, the cells were washed to remove unbound antibody. The cells were then incubated at 37° C. After 2 hours, the cells were dissociated and stained with fluorescent-conjugated […] secondary antibodies for 30 minutes on ice in dark before being analyzed using Beckman flow cytometry system. The fluorescent intensity and cell binding percentage at each time point were analyzed by Beckman flow cytometric software. The amount of chimeric IgGs internalized into cells was determined using the following formula: % internalization rate = 100 × (MFI4°C - MFI37°C) / MFI4°C.

B1: #118-2-5: murine mAb (VH SEQ ID NO: 15, VL 17) tested as murine-human chimeric IgG1, HC SEQ ID NO: 47, LC 48 (antibody)
heavy: QVQLKQSGPGLVAPSQSLSITCTVSGFSLTSYGVNWIRQPPGKGLEWLGVMWAGGSTNYNSALMSRLSISKDNSKSQVFLKMNSLQTDDTGMYYCARDENWDGAWFAYWGQGTLVTVSASTKGPSVFPLAPSSKSTSGGTAALGCLVKDYFPEPVTVSWNSGALTSGVHTFPAVLQSSGLYSLSSVVTVPSSSLGTQAYICNVNHKPSNTKVDKKVG[left out - human IgG1 Fc with K334R T359A (EU numbers)]
light: DIQMTQSPSSLAVSAGEKVTMSCKSSQSLLNSGTRKNYLAWYQQKPGQSPKLLISWASSRESGVPDRFTGSGSGTDFTLTISSVQAEDLAVYYCKQSYNLFTFGGGTKLELKRTVAAPSVFIFPPSDEQLKSGTASVVCLLNNFYPREAKVQWKVDNALQSGNSQESVTEQDSKDSTYSLSSTLTLSKADYEKHKVYACEVTHQGLSSPVTKSFNRGEC
Take B1: the “OD value, Conditioned Medium 1 to 1 ratio” value in test [1] (Table 3, ELISA absorbance at 405 nm, 1 to 1 ratio) is 1.996. Further, the “OD value, Conditioned Medium 1 to 10 ratio” value in test [1] (Table 3, ELISA absorbance at 405 nm, 1 to 10 ratio) amounted to 2.032. Moreover, in test [1] (in words, chimeric IgGs, see OD value in Table 3), the “binding affinity to Trop 2 compared with benchmark hRS7” value is recorded as “higher binding affinity than the benchmark reference antibody hRS7”. The “recognition of the non-related protein (ELISA, OD450 nm)” value in the test with non-related protein is “did not recognize”. Moreover, in the test with human Trop-2ECD-6His, the “binding to human Trop-2 antigen (ELISA, OD450 nm)” value is reported as “able to bind”. The “recognition of hEPCAM (ELISA, OD450 nm)” value with human EPCAM-His is “did not recognize”. Also, in the test with mouse Trop-2-His, the “recognition of mouse Trop-2 (ELISA, OD450 nm)” value is given as “did not recognize”. For the same molecule, in the test with cynomolgus Trop-2-His, the “binding to cynomolgus Trop-2 antigen (ELISA, OD450 nm)” value is listed as “able to bind”. Also, the “Internalization Rate” value in test [2] (Table 4, chimeric IgGs, 2 hours at 37° C., 100 × (MFI4°C - MFI37°C) / MFI4°C) came to 40.44%. For the same molecule, the “internalization rate compared with benchmark IgG” value in test [2] (in words, chimeric IgG) is given as “much better internalization rate than the benchmark IgG”.
